Sequences with one replicate were seen in a single cluster, so their values are uncertain.
Each sequence was assayed on ATP (assay: switch fluorescence ratio, 500 uM ATP over buffer (Cy3 cluster intensity, sum of 5 cycles each) (fold (ratio)); higher = stronger signal-on switching upon ATP binding; sequences stand for … in TCGTCGGCAGCGTCAGATGTGTATAAGAGACAGTTTTTTTTTTTTTTTTTTTTTTTTT…TC). Settings: aptamer strand: ATP DNA aptamer (quencher-CACCTGGGGGAGTATTGCGGAGGAAGG + anchor), 100 nM annealed; ATP concentration: 500 uM; one replicate.
How it was run: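 Imaging in selection buffer was followed by imaging after 15 min with 500 uM ATP at 22 °C, for Cy3-labelled switching-strand clusters annealed to 100 nM quencher-labelled ATP aptamer on a modified Illumina MiSeq flow-cell. Five of these buffer/ATP cycles ran, separated by NaOH stripping and re-annealing. The fluorescence ratio per cluster is summed target-cycle over summed buffer-cycle Cy3 intensity, averaged per switch-domain sequence; clusters outside 100-1000 RFU were removed.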
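Also: ATP exposure 15 min at 22 °C before imaging.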

Sequence	switch fluorescence ratio
GTCATCCGGT	1.05
TTCGTGTGAA	0.994
ACCGGTCGTC	1.04
AGGCCGGGCT	1.02
ACGTGCTTCA	1.06
CGAACACGTG	1
CTGACCTGCC	2.56
TCCGTGCGTA	1.26
AGATGGTCTA	0.937
TATCGAGAT	0.967
TGGCCTTATA	0.974
GGAATTCAGC	1.02
AGTCCGTGTC	1.09
AACTTCGCAG	1.98
TCCTTTGGCA	1.18
CGGAATCGGG	1.04
TTGGCCGAAA	1
CTGGCGCAGT	1.63
CTAAGACGGC	0.993
GTCGTTATAT	1.06
CCGCCGTCGA	1.91
AGTGCAATAA	2.89
AGACCCAGTA	1.01
TGGTAAAAGC	1.01
GCCCCTATAT	1.06
ACATGGAACG	1.01

Sequence	switch fluorescence ratio
CTTGGACTA	0.997
AAGATATCTA	0.984
AAGTTTTCGT	0.979
ATGTTAATTT	0.967
CGTCTTAGGT	0.933
AGATCGGGGA	0.916
CACAACGGTT	1.02
ATGAACTTAC	1.33
AGCATGAGCC	1.05
ACTTGATGTT	1.05
GGTCTCGGCA	1.01
CCAATGGACG	0.965
GGATTTAACA	0.948
CCTTTATCCC	1.16
CATAAATGCA	1.01
TGATGCTTGG	1
TCAATGAATG	0.99
TATGACCGA	0.993
TGAACGGGT	1.04
AAGGATATAG	0.951
CCTAGCCGGT	1.04
TCGTTCTTT	0.953
GGCGAATGG	0.959
TATAGCGCCA	1.01
GGACATATAC	1.79
TAGGAAGTGT	1.08

Sequence	switch fluorescence ratio
TCGCCGGAGA	1.01
TCGCGCCTCC	2.37
CTACACCAAA	1.02
TTTGAACTGC	0.937
ACATGTGGGA	0.992
ACAGCTACGA	1.27
GTTATAGTGC	0.988
GCCGTCCTGG	1.04
AAGGCACGT	1.05
AGATGTACTT	1.04
TTCGCGCGCA	1.09
CGGTGAAGGT	0.962
AAAACGTCCA	1.01
AGAGATTTTT	0.953
CGCCGCTATT	2.68
GCCGCCCCCG	1.03
GTTAAATGGG	1.06
ATTCTAAAAG	0.996
GTGCATGAAG	0.984
CAAGCCCGGG	1.17
TGCAATTCTG	1.17
ATATGTTACC	1.02
GGCCCTGCCC	1.03
CCCCAAGTGG	2
CTGTCTGAGC	1.02
CAATCTAAGG	0.961

Sequence	switch fluorescence ratio
TGCTAGACC	1.04
TTAAACCCAT	1.01
ATGCTCTTGG	1.02
ACAGAACGGG	0.984
AGGCTTAAAA	0.998
TGAGAAATTT	1.24
GATGCTCATC	0.992
ATAGATTTTT	0.974
CATAAAGTTA	1.02
CGAGTCTTCG	1
CCGGTGTATC	1.23
GGCGCGAAAT	1.06
CTAAGGACGC	1.05
GATGGGTAGC	1.02
TGCTGCTGCG	1
GAAGTTCTAA	0.978
GCGTCATGTA	1.03
GCCAACTCAG	0.993
GCTGATGCGA	1.04
TCAAGAAAAG	1.03
GTCATTAAAT	0.991
CAGATTTATA	0.992
CAGGGATGT	0.975
GCACTCGAAA	1.08
TCACTCTCTT	0.966
AGTCCGCCTG	1.09

Sequence	switch fluorescence ratio
GATAGCAAGG	1.13
GCACCCGGGA	1.02
CCGGAAAAAT	1.55
TTGTCGGGGT	0.968
GTTTTCATAT	1.01
TGAAGTTTGT	0.967
TAAAGTATAG	0.982
ATTCGACGCC	2.16
ACGTCGTCGT	1
TCATTAAGCG	0.96
TGCAGCTTTG	1.02
GCTCATACTA	1.04
ATTGTATTCG	1.05
GGCTAAGAAG	1.01
GCCTTGAACG	1.04
TTGGCAGGAA	0.998
CATTTCACAC	1.01
AACACTTGTA	1.01
TGACGCGGGA	1.07
TGTCTACTCG	1.01
TGCTTTGAGG	1.01
CCCGGCAGGA	1.9
GGCGTAGGT	0.984
TTGCTGTAC	1.73
CTACAAACGG	1.37
AGGTAGAATT	1.01

Sequence	switch fluorescence ratio
GCAGTTAATA	1.06
TAACTCTTA	0.973
CGTGTGGATG	1.03
CGGTACTTAC	1.24
CTGGAGTTTG	0.981
GAATCTAAGA	0.982
TTGATTGAAT	1.01
CGGGTTCCTT	1.05
TGATGAATCT	1.05
TATAAAATCA	0.971
CTGTCGCTTT	1.05
GATGCGGTGG	0.976
CGTTACACAG	0.977
ACAGGTACTC	1.07
CTGCTCGAAC	1.05
AGGCAGGAAC	1.29
TATAGTGGGC	0.983
GGTGGCAGGT	0.954
TTCTGGCGTC	1.04
CATGCGTTAC	3.65
TGGCCCGGCG	1.07
TGCGAACGTT	1.04
AAGTTACTGC	0.904
